# In the supplement of paper PMC8728848:
# The other results are listed elsewhere or left out.
# B1: CVN-E41G (protein)
# chain: MHHHHHHENLYFQSGNFSQACYNSAIQGSVLTSTCIRTNGGYNTSSIDLNSVIGNVDGSLKWQGSNFIETCRNTQLAGSSELAAECKTRAQQFVSTKINLDDHIAAIDGTLKYE
# Assays:
# Test in all cases: glycan array binding signal (z-score within array); higher = stronger binding
# Conditions in all cases: glycan notation: IUPAC condensed, linker removed; mutation: E41G
# [1] = target: GlcNAc(b1-3)Gal(b1-4)GlcNAc(b1-3)Gal(b1-4)GlcNAc(b1-3)Gal(b1-4)GlcNAc(b1-3)Gal(b1-4)GlcNAc(b1-2)[GlcNAc(b1-3)Gal(b1-4)GlcNAc(b1-3)Gal(b1-4)GlcNAc(b1-3)Gal(b1-4)GlcNAc(b1-3)Gal(b1-4)GlcNAc(b1-6)]Man(a1-6)[GlcNAc(b1-3)Gal(b1-4)GlcNAc(b1-3)Gal(b1-4)GlcNAc(b1-3)Gal(b1-4)GlcNAc(b1-3)Gal(b1-4)GlcNAc(b1-2)Man(a1-3)]Man(b1-4)GlcNAc(b1-4)[Fuc(a1-6)]GlcNAc
# In short: (§1)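 Glycan array data came from 3228 arrays in the Consortium for Functional Glycomics database, and only arrays with an available protein sequence were kept. Glycan names were put into IUPAC-condensed notation, and columns mapping to the same glycan were averaged. The binding signal is a within-array Z-score, averaged across arrays of one protein sequence run at different concentrations or buffers and across linkers. A negative Z-score can be read as non-binding.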
# [2] = target: GlcNAc(b1-3)Gal(b1-4)GlcNAc(b1-3)Gal(b1-4)GlcNAc(b1-3)GalNAc
# In short: as §1
# [3] = target: GlcNAc(b1-3)Gal(b1-4)GlcNAc(b1-3)GalNAc
# In short: as §1
# [4] = target: GlcNAc(b1-3)Gal(b1-4)GlcNAc(b1-3)[GlcNAc(b1-3)Gal(b1-4)GlcNAc(b1-3)]GalNAc
# In short: as §1
# [5] = target: GlcNAc(b1-3)Gal(b1-4)GlcNAc(b1-6)[Gal(b1-3)]GalNAc
# In short: as §1
# [6] = target: GlcNAc(b1-3)Gal(b1-4)GlcNAc(b1-6)[GlcNAc(b1-3)Gal(b1-3)]GalNAc
# In short: as §1
# [7] = target: GlcNAc(b1-3)Gal(b1-4)GlcNAc(b1-6)[GlcNAc(b1-3)]Gal(b1-4)GlcNAc
# In short: as §1
# GlcNAc(b1-3)GalNAc = target: GlcNAc(b1-3)GalNAc
# In short: as §1
# GlcNAc(b1-3)Man = target: GlcNAc(b1-3)Man
# In short: as §1
# [8] = target: GlcNAc(b1-3)[GlcNAc(b1-4)][GlcNAc(b1-6)]GlcNAc
# In short: as §1
# [9] = target: GlcNAc(b1-3)[GlcNAc(b1-6)]Gal(b1-4)GlcNAc
# In short: as §1
# [10] = target: GlcNAc(b1-3)[GlcNAc(b1-6)]GalNAc
# In short: as §1
# [11] = target: GlcNAc(b1-4)Gal(b1-4)GlcNAc
# In short: as §1
# GlcNAc(b1-4)GlcNAc = target: GlcNAc(b1-4)GlcNAc
# In short: as §1
# [12] = target: GlcNAc(b1-4)GlcNAc(b1-4)GlcNAc
# In short: as §1
# [13] = target: GlcNAc(b1-4)GlcNAc(b1-4)GlcNAc(b1-4)GlcNAc(b1-4)GlcNAc
# In short: as §1
# [14] = target: GlcNAc(b1-4)GlcNAc(b1-4)GlcNAc(b1-4)GlcNAc(b1-4)GlcNAc(b1-4)GlcNAc
# In short: as §1
# [15] = target: GlcNAc(b1-4)[GlcNAc(b1-6)]GalNAc
# In short: as §1
# [16] = target: GlcNAc(b1-6)Gal(b1-4)GlcNAc
# In short: as §1
# GlcNAc(b1-6)GalNAc = target: GlcNAc(b1-6)GalNAc
# In short: as §1
# [17] = target: GlcNAc6S(b1-3)Gal(b1-4)GlcNAc
# In short: as §1
# Kdn(a2-3)Gal(b1-3)GalNAc = target: Kdn(a2-3)Gal(b1-3)GalNAc
# In short: as §1
# Kdn(a2-3)Gal(b1-3)GlcNAc = target: Kdn(a2-3)Gal(b1-3)GlcNAc
# In short: as §1
# Kdn(a2-3)Gal(b1-4)Glc = target: Kdn(a2-3)Gal(b1-4)Glc
# In short: as §1
# Kdn(a2-3)Gal(b1-4)GlcNAc = target: Kdn(a2-3)Gal(b1-4)GlcNAc
# In short: as §1
# [18] = target: Kdn(a2-3)Gal(b1-4)[Fuc(a1-3)]GlcNAc
# In short: as §1
# Kdn(a2-6)Gal(b1-4)GlcNAc = target: Kdn(a2-6)Gal(b1-4)GlcNAc
# In short: as §1
# [19] = target: Man(a1-2)Man(a1-2)Man(a1-3)Man
# In short: as §1
# [20] = target: Man(a1-2)Man(a1-2)Man(a1-6)[Man(a1-3)]Man
# In short: as §1
# Man(a1-2)Man(a1-3)Man = target: Man(a1-2)Man(a1-3)Man
# In short: as §1
# [21] = target: Man(a1-2)Man(a1-3)[Man(a1-2)Man(a1-6)]Man
# In short: as §1
# [22] = target: Man(a1-2)Man(a1-3)[Man(a1-2)Man(a1-6)]Man(a1-6)[Man(a1-2)Man(a1-2)Man(a1-3)]Man
# In short: as §1
# [23] = target: Man(a1-2)Man(a1-3)[Man(a1-2)Man(a1-6)]Man(a1-6)[Man(a1-2)Man(a1-2)Man(a1-3)]Man(b1-4)GlcNAc(b1-4)GlcNAc
# In short: as §1
# [24] = target: Man(a1-2)Man(a1-3)[Man(a1-6)]Man(a1-6)[Man(a1-2)Man(a1-3)]Man(b1-4)GlcNAc(b1-4)GlcNAc
# In short: as §1
# [25] = target: Man(a1-2)Man(a1-6)[Man(a1-3)]Man(a1-6)[Man(a1-2)Man(a1-2)Man(a1-3)]Man
# In short: as §1
# [26] = target: Man(a1-2)Man(a1-6)[Man(a1-3)]Man(a1-6)[Man(a1-2)Man(a1-2)Man(a1-3)]Man(b1-4)GlcNAc(b1-4)GlcNAc
# In short: as §1
# Man(a1-3)[Man(a1-6)]Man = target: Man(a1-3)[Man(a1-6)]Man
# In short: as §1
# [27] = target: Man(a1-3)[Man(a1-6)]Man(a1-6)[Man(a1-2)Man(a1-3)]Man(b1-4)GlcNAc(b1-4)GlcNAc
# In short: as §1
# [28] = target: Man(a1-3)[Man(a1-6)]Man(a1-6)[Man(a1-3)]Man
# In short: as §1
# [29] = target: Man(a1-3)[Man(a1-6)]Man(a1-6)[Man(a1-3)]Man(b1-4)GlcNAc(b1-4)GlcNAc
# In short: as §1
# [30] = target: Man(a1-3)[Man(a1-6)]Man(b1-4)GlcNAc(b1-4)GlcNAc
# In short: as §1
# [31] = target: Man(a1-3)[Man(a1-6)]Man(b1-4)GlcNAc(b1-4)[Fuc(a1-6)]GlcNAc
# In short: as §1
# Man(a1-6)Man = target: Man(a1-6)Man
# In short: as §1
# Man(b1-4)GlcNAc = target: Man(b1-4)GlcNAc
# In short: as §1
# MurNAc(b1-4)GlcNAc = target: MurNAc(b1-4)GlcNAc
# In short: as §1
binder,measurement,setting,value
B1,glycan array binding signal (z-score),[1],-0.123
same,glycan array binding signal (z-score),[2],-0.128
same,glycan array binding signal (z-score),[3],-0.168
same,glycan array binding signal (z-score),[4],-0.161
same,glycan array binding signal (z-score),[5],-0.128
same,glycan array binding signal (z-score),[6],-0.163
same,glycan array binding signal (z-score),[7],-0.149
same,glycan array binding signal (z-score),GlcNAc(b1-3)GalNAc,-0.152
same,glycan array binding signal (z-score),GlcNAc(b1-3)Man,-0.139
same,glycan array binding signal (z-score),[8],-0.16
same,glycan array binding signal (z-score),[9],-0.095
same,glycan array binding signal (z-score),[10],-0.168
same,glycan array binding signal (z-score),[11],-0.163
same,glycan array binding signal (z-score),GlcNAc(b1-4)GlcNAc,-0.13
same,glycan array binding signal (z-score),[12],-0.125
same,glycan array binding signal (z-score),[13],-0.141
same,glycan array binding signal (z-score),[14],-0.125
same,glycan array binding signal (z-score),[15],-0.194
same,glycan array binding signal (z-score),[16],-0.121
same,glycan array binding signal (z-score),GlcNAc(b1-6)GalNAc,-0.18
same,glycan array binding signal (z-score),[17],-0.121
same,glycan array binding signal (z-score),Kdn(a2-3)Gal(b1-3)GalNAc,-0.154
same,glycan array binding signal (z-score),Kdn(a2-3)Gal(b1-3)GlcNAc,-0.157
same,glycan array binding signal (z-score),Kdn(a2-3)Gal(b1-4)Glc,-0.07
same,glycan array binding signal (z-score),Kdn(a2-3)Gal(b1-4)GlcNAc,-0.154
same,glycan array binding signal (z-score),[18],-0.134
same,glycan array binding signal (z-score),Kdn(a2-6)Gal(b1-4)GlcNAc,-0.145
same,glycan array binding signal (z-score),[19],7.32
same,glycan array binding signal (z-score),[20],9.78
same,glycan array binding signal (z-score),Man(a1-2)Man(a1-3)Man,5.5
same,glycan array binding signal (z-score),[21],8.72
same,glycan array binding signal (z-score),[22],11
same,glycan array binding signal (z-score),[23],0.041
same,glycan array binding signal (z-score),[24],6.59
same,glycan array binding signal (z-score),[25],8.16
same,glycan array binding signal (z-score),[26],8.78
same,glycan array binding signal (z-score),Man(a1-3)[Man(a1-6)]Man,-0.118
same,glycan array binding signal (z-score),[27],4
same,glycan array binding signal (z-score),[28],-0.129
same,glycan array binding signal (z-score),[29],0.273
same,glycan array binding signal (z-score),[30],-0.165
same,glycan array binding signal (z-score),[31],0.148
same,glycan array binding signal (z-score),Man(a1-6)Man,-0.063
same,glycan array binding signal (z-score),Man(b1-4)GlcNAc,-0.122
same,glycan array binding signal (z-score),MurNAc(b1-4)GlcNAc,-0.097
